Experimental data published in PubChem BioAssay AID588591 (National Center for Advancing Translational Sciences (NCATS), 2011).
In all, about 390,000 compounds went through this assay and about 4,700 (1.2%) were called active. Inconclusive results, whose numbers are uncertain, are shown with a selection of clear calls. Calls come from the whole dose curve; as a rule, active = well fitted inhibition curve with a large enough effect; inconclusive = small, poorly fitted or top-dose-only effect, or another doubt; inactive = no such curve, though single readings can be large or run the other way. Potencies of inconclusive entries are doubtful fits and often do not repeat.

The compounds below were run against DNA polymerase eta (Homo sapiens) (UniProt Q9Y253) (assay: qHTS for Inhibitors of Polymerase Eta). Conditions: recombinant Pol eta, fluorescent DNA replication assay; series mostly up to 114 µM; activity change, negative = inhibition: at the top concentration.
UniProt Q9Y253, sequence (Q9Y253 whole entry, looked up): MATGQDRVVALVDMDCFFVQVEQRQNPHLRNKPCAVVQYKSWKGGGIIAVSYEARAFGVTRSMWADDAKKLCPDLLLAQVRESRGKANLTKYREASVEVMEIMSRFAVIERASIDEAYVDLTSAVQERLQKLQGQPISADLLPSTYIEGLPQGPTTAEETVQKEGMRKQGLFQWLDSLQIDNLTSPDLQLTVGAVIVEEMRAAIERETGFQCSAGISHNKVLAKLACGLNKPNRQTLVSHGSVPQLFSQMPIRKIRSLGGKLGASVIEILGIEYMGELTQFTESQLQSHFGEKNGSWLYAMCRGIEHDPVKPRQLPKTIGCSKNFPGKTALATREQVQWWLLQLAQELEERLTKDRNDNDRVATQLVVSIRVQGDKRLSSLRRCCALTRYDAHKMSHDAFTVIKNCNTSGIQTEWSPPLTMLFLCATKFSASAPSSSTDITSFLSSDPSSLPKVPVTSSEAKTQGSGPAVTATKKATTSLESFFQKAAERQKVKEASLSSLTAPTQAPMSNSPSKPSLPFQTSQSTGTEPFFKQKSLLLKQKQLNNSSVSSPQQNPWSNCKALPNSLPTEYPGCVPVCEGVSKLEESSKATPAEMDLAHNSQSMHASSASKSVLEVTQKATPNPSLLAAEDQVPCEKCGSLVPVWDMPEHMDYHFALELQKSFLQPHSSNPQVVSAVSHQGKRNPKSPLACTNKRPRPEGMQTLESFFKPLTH
How it was run: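 Pol eta at 10 nM preincubated with compounds 15 min at room temperature; reaction started with fluorescent substrate (50 nM final) and read kinetically at 0 and 10 min.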
% is set by controls: 0 for no effect and ±100 for the full control effect; potency is the fitted concentration of half-maximal effect; tags give direction and shape of the fitted curve.

With `COc1cc(C(=O)Nc2ccccc2N2CCOCC2)ccc1OCC(=O)N1CCOCC1` as the compound, how does the Potency read?
The Potency was inconclusive: 89.1 µM [inhibitor, single point].

With `COc1ccccc1N1CCN(C(=O)c2ccc3[nH]c4c(c3c2)CCCC4)CC1` as the compound, how does the Potency read?
The Potency was inconclusive: 89.1 µM [inhibitor, single point].

With `COc1cc([N+](=O)[O-])cc(/C=N/NC(=O)Cn2nccc2C)c1O` as the compound, how does the Potency read?
Its Potency is inconclusive: 89.1 µM [inhibitor, partial curve, poor fit].

For `O=C1CC(C(=O)Nc2ccc(O)c(C(=O)O)c2)C(c2ccccc2)O1` (configuration not stated), which Potency is on record?
The Potency was active: 50.1 µM.

For `COCCn1c(SCC(=O)NC2CCCC2)nc2cccnc21`, which “activity change, negative = inhibition” value is on record?
The value was inactive: -7.75%.

How did the Potency turn out when `CCc1ccc(C(=O)c2cn(CC(=O)Nc3cccc(OC)c3)c3ccc(OC)cc3c2=O)cc1` was run?
Its Potency is active: 39.8 µM.

How did the “activity change, negative = inhibition” value turn out when `O=C(O)CCN1C(=O)/C(=C2\C(=O)N(Cc3ccc(F)cc3)c3ccccc32)SC1=S` was run?
Its value is inactive: 2.76%.

With `COc1ccc(NC(=O)CSc2nc3[nH]c(=O)cc(O)c3s2)c(OC)c1` as the compound, how does the Potency read?
The Potency was inconclusive: 28.2 µM [inhibitor, partial curve, poor fit].

`Cc1ccc(NC(=O)Cn2cc(S(=O)(=O)c3ccc(C)cc3)c(=O)c3cc4c(cc32)OCO4)cc1` was tested. Which “activity change, negative = inhibition” value did it give?
Its value is inactive: -3.24%.

With `CC(=O)Nc1cc(OC(C)=O)c2nonc2c1OC(C)=O` as the compound, how does the Potency read?
The Potency was active: 50.1 µM.

`Cc1ccccc1NC(=O)CSc1ccc(-c2ccco2)nn1` was tested. Which Potency did it give?
Its Potency is inconclusive: 25.1 µM [inhibitor, single point].

With `COc1cc(OC)cc(C(=O)Nc2nnc(NC(=S)Nc3ccccc3)s2)c1` as the compound, how does the Potency read?
The Potency was inconclusive: 15.8 µM [inhibitor, full curve, poor fit].

`CC1(OC(=O)c2ccc(Cl)nc2)C(=O)C=C2C=C3CCCN3C=C2C1=O` (configuration not stated) was tested. Which Potency did it give?
The Potency was active: 14.1 µM.

How did the Potency turn out when `CCSc1nc2c(cnn2-c2ccc(C)c(C)c2)c(=O)[nH]1` was run?
The Potency was inconclusive: 10 µM [inhibitor, full curve, poor fit].

How did the Potency turn out when `O=C1S/C(=C\c2ccc(N3CCOCC3)o2)C(=O)N1c1ccccc1` was run?
The Potency was inconclusive: 50.1 µM [inhibitor, partial curve].

For `CCOc1ccc(CCNC(=O)CSCc2ccc(C)cc2)cc1OCC`, which Potency is on record?
The Potency was inconclusive: 79.4 µM [inhibitor, partial curve, poor fit].

Which Potency does the source give for `COc1ccc2c(c1)c1nc3ccccc3nc1n2Cc1ccc(OC)c(OC)c1` here?
Its Potency is inconclusive: 8.91 µM [inhibitor, partial curve, poor fit].

`Cc1ccc(NC(=O)CSCC(=O)Nc2ncc3c(n2)CC(c2ccco2)CC3=O)cc1` (configuration not stated) was tested. Which Potency did it give?
The Potency was inconclusive: 56.2 µM [inhibitor, partial curve, poor fit].

With `COc1c2c(c(C)c3c1C(=O)OC3)O[C@@]1(C)CC[C@@]3(O)C(C)(C)OC(=O)CC[C@]3(C)[C@H]1C2` as the compound, how does the Potency read?
The Potency was active: 44.7 µM.

How did the “activity change, negative = inhibition” value turn out when `O=C(Oc1ccc(N(Cc2cccs2)C2=NS(=O)(=O)c3ccccc32)cc1)c1ccco1` was run?
Its value is inactive: -12.6%.

`Cc1ccc(OCCSc2nc(NC(C)C)nc(NC(C)C)n2)cc1` was tested. Which Potency did it give?
The Potency was inconclusive: 100 µM [inhibitor, partial curve, poor fit].

Which “activity change, negative = inhibition” value does the source give for `COc1ccc(NC(=O)CSc2nc(NS(=O)(=O)c3ccc(C)cc3)cc(=O)[nH]2)cc1` here?
The value was inactive: -14.8%.

`Cc1ccc(/C=N/c2sc3c(c2C#N)CCCCC3)o1` was tested. Which Potency did it give?
Its Potency is inconclusive: 39.8 µM [inhibitor, partial curve, poor fit].

How did the “activity change, negative = inhibition” value turn out when `O=C(O)c1[nH]c2ccccc2c1C(c1ccccc1)c1c(C(=O)O)[nH]c2ccccc12` was run?
The value was inactive: -16.4%.

For `CN(C(=O)c1cccc(NC(=O)C2CCN(C(=O)OC(C)(C)C)CC2)c1)C1CCCCC1`, which Potency is on record?
Its Potency is inconclusive: 89.1 µM [inhibitor, partial curve, poor fit].

For `CC(=NNC(=S)N1CCCCCC1)c1cccc2cccnc12`, which Potency is on record?
The Potency was inconclusive: 39.8 µM [inhibitor, partial curve, poor fit].

For `CN(C(=O)CC1C(=O)NCCN1Cc1cccc(C(F)(F)F)c1)C1CCOCC1` (configuration not stated), which Potency is on record?
The Potency was inconclusive: 100 µM [inhibitor, partial curve, poor fit].

For `c1coc(-c2nc(N=C3N=c4ccccc4=N3)[nH]c2-c2ccco2)c1`, which Potency is on record?
The Potency was inconclusive: 14.1 µM [inhibitor, full curve, poor fit].

Which Potency does the source give for `O=C(Nc1ccc2oc(=O)ccc2c1)c1ccc(-c2cccc([N+](=O)[O-])c2)o1` here?
The Potency was active: 31.6 µM.

How did the Potency turn out when `COc1ccc(CCNC(=O)Cc2cc3c(cc2[N+](=O)[O-])OCO3)cc1OC` was run?
The Potency was inconclusive: 25.1 µM [inhibitor, partial curve, poor fit].

With `CCc1nn2c(=O)cc(COc3ccc(/C=C4\C(=N)N5N=C(CC(C)C)SC5=NC4=O)cc3)nc2s1` as the compound, how does the Potency read?
The Potency was inconclusive: 39.8 µM [inhibitor, partial curve].

For `O=C(CSc1nnc(-c2cccnc2)o1)c1cc2ccccc2oc1=O`, which Potency is on record?
The Potency was inconclusive: 31.6 µM [inhibitor, single point].

For `S=C(Nc1cccc2ccccc12)NC1CCCCC1`, which “activity change, negative = inhibition” value is on record?
Its value is inactive: -6.49%.

Which Potency does the source give for `O=C(CSc1nc2ccccc2s1)Nc1cc(C(=O)O)cc(C(=O)O)c1` here?
The Potency was inconclusive: 20 µM [inhibitor, full curve, poor fit].

How did the Potency turn out when `O=C(CCS(=O)(=O)c1nc(-c2cccs2)cc(C(F)(F)F)n1)Nc1ccc(OC(F)(F)F)cc1` was run?
The Potency was inconclusive: 89.1 µM [inhibitor, single point].

How did the Potency turn out when `Cc1nc(S/C(=C/c2ccc(-c3ccc(Cl)cc3)o2)C(=O)O)n[nH]1` was run?
Its Potency is active: 25.1 µM.

`O=C1NN(c2ccc(F)c(Cl)c2)C(=O)/C1=C\c1cccc(OC(=O)c2cccs2)c1` was tested. Which Potency did it give?
Its Potency is active: 20 µM.

Which “activity change, negative = inhibition” value does the source give for `O=C(COc1ccc2ccccc2c1)NNC(=O)Nc1ccc(F)cc1F` here?
Its value is inactive: -15.3%.

How did the “activity change, negative = inhibition” value turn out when `O=C1NC(=S)SC1=Cc1cccs1` was run?
Its value is inactive: -8.06%.

With `Cc1ccccc1N1CC(C(=O)Nc2nnc(SCC(=O)Nc3nccs3)s2)CC1=O` (configuration not stated) as the compound, how does the Potency read?
The Potency was inconclusive: 11.2 µM [inhibitor, full curve, poor fit].

With `COc1cccc(NC(=O)CSc2nc3ccc(NC(=O)c4cccs4)cc3s2)c1` as the compound, how does the “activity change, negative = inhibition” value read?
Its value is inactive: -20.5%.

How did the Potency turn out when `CC1=C(C(=O)OC(C)C)C(c2cccs2)C(C(=O)OC(C)C)=C(C)N1` was run?
Its Potency is inconclusive: 50.1 µM [inhibitor, partial curve, poor fit].
